What was measured:
[1] = test system: hGITR on mouse CD8+ T cells; experiment: In vitro splenocyte assay, hGITR-hGITRL knock-in mice; type: cell-based
Protocol: In vitro splenocyte assays were carried out using spleens isolated from mice. Briefly, spleens from mice were dissociated by automated homogenization in 5 mL AutoMACS Rinsing Solution (Miltenyi Biotech 130-091-222) containing 5% BSA (Miltenyi Biotech 130-091-376) using gentleMACS C tubes (Miltenyi Biotech 130-096-334) on a gentleMACS Octo Dissociator (Miltenyi Biotech 130-095-937). Homogenates were strained through a 0.70 uM pore size cell strainer (Fisher Scientific 22363548) and washed with 10 mL AutoMACS buffer. Splenocytes were resuspended and plated at 100,000 cells/well in RPMI (HyClone SH30027.02)+10% human serum (Cellgro 35-060.C1)+1× Pen/Strep/L-Glut (Gibco 15 140-112) in a 96-well tissue culture plate (Costar 3799). […] After 48 hours, cells were either analyzed immediately or pulsed with control or therapeutic antibody for 30 minutes to 96 hours, stained with fluorophore-conjugated antibodies and analyzed by flow cytometry.
Flow cytometry: For surface markers, cells were stained with anti-CD19 (BD Biosciences 562291), anti-CD8 (Biolegend 100725), anti-CD4 (eBioscience 25-0041), anti-CD69 (BD Biosciences 561238), anti-hGITR (Miltenyi Biotech 130-092-895) and anti-hIgG (Life Sciences A-10631) antibodies for 30 minutes at 4C. […] Cells were read on a BD LSRFortessa cytometer using BD FACSDiva software (BD Biosciences) and flow data was analyzed using FlowJo software (TreeStar Inc.).

Colon26 tumors = experiment: Colon26 tumor model in hGITR-hGITRL double knock-in mice; type: in vivo, mouse
Protocol: Co-stimulatory activity of MABs on T cells was also measured using an ELISpot method for detection of IFNg. Briefly, ELISPOT plates (Millipore MSIPS4510) were prepared by coating with 70% ethanol for 2 minutes followed by PBS wash and incubation overnight with 50 ug IFNg monoclonal antibody in PBS (Mabtech 3321-3). Purified CD8+ T cells were isolated from spleens of Vehicle or MAB7-treated mice 15-days post-dose. T cells were plated into the coated ELISPOT plates at 0.25×10̂6 cells per well in CTL media (CTL Test-medium (CTL CTLT-005), 1 mM Hepes (Mediatech MT25-060-C1), 2 mM L-glutamine (Mediatech MT25-005-C1), 1 mM sodium pyruvate (Mediatech MT25-000-C1), 100 uM MEM Non-essential amino acids (Mediatech MT25-025-C1), 66 uM 2-Mercaptoethanol (Gibco 21985-023), 100 U/mL Pten/Strep (Gibco 10378016). Colon26 cells were treated with 10% ConA sup (BD Biosciences 354115) at 37° C. for 48 hours to upregulate MHC Class II expression and washed with CTL media prior to addition to T-cells. Colon26 tumor cells (20,000/well) were added to CTLs and incubated at 37° C. for 24-48 hours. Plates were then washed with 0.05% Tween-20/PBS and 10 ug of biotinylated anti-IFNg Mab (Mabtech R4-6A2-biotin) was added to each well and incubated for 2 hours at 37° C. Plates were then washed with 0.05% Tween-20/PBS and Vectastain ABC solution (Vector Labs PK6100) was added to each well and incubated for 1 hour at room temperature. Cells were then washed with 0.05% Tween-20/PBS and AEC substrate, prepared according to manufacturer's protocol (Sigma A6926) was added to each well and incubated for 4 minutes at room temperature. Plates were then rinsed with tap water, dried and stored in the dark for 24 hours prior to reading.
Flow cytometry: For surface markers, cells were stained with anti-CD19 (BD Biosciences 562291), anti-CD8 (Biolegend 100725), anti-CD4 (eBioscience 25-0041), anti-CD69 (BD Biosciences 561238), anti-hGITR (Miltenyi Biotech 130-092-895) and anti-hIgG (Life Sciences A-10631) antibodies for 30 minutes at 4C. For intracellular staining, following incubation with cell surface antibodies, cells were washed, fixed and permeabliized with FOXP3 Fix/Perm buffer (Biolegend 421403) according to manufacture's protocol and incubated with anti-phospho-IKKa/b antibody (Cell Signaling 2697) or anti-FOXP3 antibody (eBioscience 50-4774-42) for 30 minutes at 4C. Cells were read on a BD LSRFortessa cytometer using BD FACSDiva software (BD Biosciences) and flow data was analyzed using FlowJo software (TreeStar Inc.).
In vivo tumor models. The Colon26 murine colon carcinoma cell line was obtained from the Division of Cancer Treatment and Diagnosis at the National Cancer Institute (vial: 0507238). Murine Colon26 carcinoma cells were cultured in RPMI 1640 medium (HyClone SH30027.02) supplemented with 10% FBS (Gibco 10099-141), 10 mM HEPES (Gibco 15630-080) and 1 mM sodium pyruvate (Gibco 11360-070). 8-10 week old female hGITR-hGITRL knock-in mice were injected subcutaneously with 0.5×10̂6 Colon26 cells in 100 uL of RPMI in the flank. Tumors were measured using digital calipers and tumor volume calculated using the equation (L×W^2)/2. When tumors reached an average size of 180 mm^3, mice were randomized and dosed with a single intraperitoneal injection of vehicle (PBS) or therapeutic antibody (15 mg/kg) in 200 uL PBS. Mice were sacrificed and tumors collected for analysis by flow cytometry 7 days after dosing with therapeutic antibodies. All animal experiments were performed in an AAALAC accredited facility using IACUC approved protocols. Statistical analysis was performed in Prism software using student's t-test with two-tailed 95% confidence interval or One-way ANOVA with Tukey correction.

[2] = 15-days post-dose, normalized to tumor size

B1: MAB7: MAB4 variant with glycation site KH changed to RH; heavy chain SEQ ID NO:100, light chain SEQ ID NO:66 (antibody)
heavy: EVQLVESGGGLVQSGGSLRLSCAASGFSLSSYGVDWVRQAPGKGLEWVGVIWGGGGTYYASSLMGRFTISRDNSKNTLYLQMNSLRAEDTAVYYCARHAYGHDGGFAMDYWGQGTLVTVSSASTKGPSVFPLAPSSKSTSGGTAALGCLVKDYFPEPVTVSWNSGALTSGVHTFPAVLQSSGLYSLSSVVTVPSSSLGTQTYICNVNHKPSNTKVDKRV[human IgG1 Fc not printed]
light: EIVMTQSPATLSVSPGERATLSCRASESVSSNVAWYQQRPGQAPRLLIYGASNRATGIPARFSGSGSGTDFTLTISRLEPEDFAVYYCGQSYSYPFTFGQGTKLEIKRTVAAPSVFIFPPSDEQLKSGTASVVCLLNNFYPREAKVQWKVDNALQSGNSQESVTEQDSKDSTYSLSSTLTLSKADYEKHKVYACEVTHQGLSSPVTKSFNRGEC
- binding to hGITR expressed on CD8+ cells ([1]; splenocytes stimulated with a-CD3 and a-CD28): effectively binds hGITR expressed on CD8+ cells
- T cell activation (pIKK staining, CD25+) ([1]; stimulated T cells): correlates with increased Tcell activation
- Tregs in tumor (Colon26 tumors; 3-days post-dose): Tregs are reduced
- activated CD8+ T cells in tumor site (Colon26 tumors; [2]): increased activated CD8+ T cells
- lymphocytes in tumor site (Colon26 tumors; [2]): increased lymphocytes
- growth of Colon26 tumors (tumor volume) (Colon26 tumors; single dose 15 mg/kg intraperitoneal, versus vehicle): delayed growth of Colon26 tumors
- tumor specific IFNg response of CD8+ T cells (ELISPOT) (Colon26 tumors; splenic CD8+ T cells incubated with Colon26 cells ex-vivo, 15-days post-dose): increased tumor specific IFNg response
- cell surface hGITR on Tregulatory and Thelper cells (Colon26 tumors; whole blood and tumors, three days post treatment): decreased hGITR

From US20170306038A1, “COMPOSITIONS AND METHODS OF USE FOR AUGMENTED IMMUNE RESPONSE AND CANCER THERAPY” (priority 2014, published 2017)
